Data as given in PubChem BioAssay (NCATS).
Where “and” joins values, the source holds several entries; their conditions need not be identical. Equal values may be shown once. Inconclusive means that the source gave no clear call. Such entries were picked first, then a sample of the others. Potencies of inconclusive entries are doubtful fits and often do not repeat. Calls of active or inactive are those of the source. Calls follow the shape of the dose curve; as a rule, active = well fitted curve in the direction sought with a large enough effect; inconclusive = small, poorly fitted or top-dose-only effect, or another doubt; inactive = no such curve, though single readings can be large; an effect the other way counts as inactive or inconclusive.

Key:
[1] = qHTS of pediatric cancer cell lines to identify multiple opportunities for drug repurposing: Primary screen for TC32 cells (AID 1347089); settings: TC32 Ewing sarcoma viability, CellTiter-Glo luminescence, 48 h; series mostly up to 45.8 µM; also: nearly all actives have a fitted effect of over 60% in size
Summary of the method: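 qHTS, TC32, 48 h drug treatment, CellTiter-Glo luminescence as a proxy for metabolically active cells; primary top concentration 46 µM (MIPE 11-pt, NPC 8-pt); confirmatory 11-pt.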

[2] = qHTS of pediatric cancer cell lines to identify multiple opportunities for drug repurposing: Primary screen for DAOY cells (AID 1347090); settings: DAOY medulloblastoma viability, CellTiter-Glo luminescence, 48 h; series mostly up to 46 µM; also: nearly all actives have a fitted effect of over 55% in size
Summary of the method: (§1)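 Eight- or eleven-point concentration series, 48 h treatment at 37 degrees C in growth media; readout CellTiter-Glo luminescence. Potency and efficacy were taken from the concentration-response curves.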

[3] = qHTS of pediatric cancer cell lines to identify multiple opportunities for drug repurposing: Primary screen for SJ-GBM2 cells (AID 1347091); settings: SJ-GBM2 viability, CellTiter-Glo luminescence, 48 h; series mostly up to 46 µM
Summary of the method: as §1

[4] = qHTS of pediatric cancer cell lines to identify multiple opportunities for drug repurposing: Primary screen for U-2 OS cells (AID 1347096); settings: U-2 OS viability, CellTiter-Glo luminescence, 48 h; series mostly up to 46 µM; also: nearly all actives have a fitted effect of over 50% in size
Summary of the method: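 Cells (500-1,000/well) in growth media were settled 5 h at 37 degrees C, then given compounds for 48 h. Viability was read as CellTiter-Glo luminescence. Primary runs used MIPE at 11 points (0.78 nM-46 µM) and NPC at 8 points (0.59 nM-46 µM); follow-ups used 11 points.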

[5] = qHTS of pediatric cancer cell lines to identify multiple opportunities for drug repurposing: Primary screen for BT-37 cells (AID 1347094); settings: BT-37 viability, CellTiter-Glo luminescence, 48 h; series mostly up to 57.3 µM
Summary of the method: (§2)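 Primary screen of approved and investigational compounds on cells in growth media at 37 degrees C, 5% CO2. MIPE set at 11-point and NPC set at 8-point dilutions; viability scored by ATP-based luminescence at 48 hours.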

[6] = qHTS of pediatric cancer cell lines to identify multiple opportunities for drug repurposing: Primary screen for SK-N-MC cells (AID 1347093); settings: SK-N-MC viability, CellTiter-Glo luminescence, 48 h; activity change, negative = cytotoxic: at 46 µM (top of the series)
Summary of the method: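 Metabolically active cells were quantified by ATP-dependent luminescence (CellTiter-Glo, 15 min at room temperature) following 48 h treatment. Cells had been plated at 500-1,000 per well and settled for 5 h beforehand.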

[7] = qHTS of pediatric cancer cell lines to identify multiple opportunities for drug repurposing: Primary screen for NB-EBc1 cells (AID 1347095); settings: NB-EBc1 neuroblastoma viability, CellTiter-Glo luminescence, 48 h; series mostly up to 46 µM
Summary of the method: as §2

[8] = qHTS of pediatric cancer cell lines to identify multiple opportunities for drug repurposing: Primary screen for A673 cells (AID 1347092); settings: A673 Ewing sarcoma viability, CellTiter-Glo ATP luminescence, 48 h; activity change, negative = cytotoxic: at 46 µM (top of the series); also: nearly all actives have a fitted effect of over 45% in size
Summary of the method: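 Luminescence from CellTiter-Glo, taken after 15 min at room temperature, served as the proxy for metabolically active cells following 48 h treatment. Both potency and efficacy were taken from curves fitted to the titration data.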
Potency is read from the fitted curve at half-maximal effect; tags tell the direction and shape of the fitted curve.

SMILES	Potency [1]	Potency [2]	Potency [3]	Potency [4]	Potency [5]	Potency [6]	Potency [7]	Potency [8]
CS[C@H]1SC[C@@H]2C(=O)N(C)[C@H](C(C)C)C(=O)OC[C@H](NC(=O)c3cnc4ccccc4n3)C(=O)N[C@H](C)C(=O)N(C)[C@@H]1C(=O)N(C)[C@H](C(C)C)C(=O)OC[C@H](NC(=O)c1cnc3ccccc3n1)C(=O)N[C@H](C)C(=O)N2C	active: 0.0093 µM	active: 0.0074 µM	inconclusive: 0.0033 µM [cytotoxic, full curve, poor fit]	active: 0.0093 µM	–	–	–	–
CN(C)CCN(C)C(=O)c1ccc(NC(=O)Nc2ccc(-c3nc(N4CCOCC4)c4ccn(CC(F)(F)F)c4n3)cc2)cc1	active: 0.147 µM	active: 1.48 µM	active: 0.105 µM	active: 4.69 µM	active: 0.0485 µM	–	–	–
COc1ccc(CCC(=O)Nc2nc3ccc(Cl)cc3s2)cc1OC	inactive	inconclusive: 23.5 µM [cytotoxic, partial curve]	–	–	inconclusive: 15.3 µM [cytotoxic, partial curve, poor fit]	inconclusive: 37.2 µM [cytotoxic, single point]	–	–
COc1cc2c(Oc3ccc4[nH]c(C)cc4c3F)ncnc2cc1OCCCN1CCCC1	inconclusive: 20.8 µM [cytotoxic, partial curve, poor fit]	active: 18.7 µM	–	–	–	inconclusive: 37.2 µM [cytotoxic, single point]	active: 4.18 µM	–
Cc1ccccc1C(=O)Nc1ccc(C(=O)N2CCCC(O)c3cc(Cl)ccc32)c(C)c1 (stereo unspecified)	inactive	inactive	–	–	inactive	–	–	inactive
CC(=O)N(O)CCCCCNC(=O)CCC(=O)N(O)CCCCCNC(=O)CCC(=O)N(O)CCCCCN	inconclusive: 29.7 µM [cytotoxic, single point]	active: 8.41 µM	inconclusive: 26.6 µM [cytotoxic, single point]	–	–	inconclusive: 33.5 µM [cytotoxic, single point]	inconclusive: 26.6 µM [cytotoxic, single point]	–
CC[C@]1(O)C[C@@H]2CN(CCc3c([nH]c4ccccc34)[C@@](C(=O)OC)(c3cc4c(cc3OC)N(C)[C@H]3[C@@](O)(C(=O)OC)[C@H](OC(C)=O)[C@]5(CC)C=CCN6CC[C@]43[C@@H]65)C2)C1	active: 118 nM and active: 592 nM	active: 26.6 nM and active: 133 nM	inconclusive: 29.9 µM [cytotoxic, single point]	inconclusive: 106 nM [cytotoxic, full curve, poor fit] and inconclusive: 1.06 µM [cytotoxic, full curve, poor fit]	–	–	inconclusive: 29.9 µM [cytotoxic, single point]	–
Fc1cc(-c2cccc3ncc(-c4cnn(C5CCNCC5)c4)nc23)cc(F)c1CN1CCOCC1	inconclusive: 14.7 µM [cytotoxic, partial curve]	inconclusive: 18.7 µM [cytotoxic, single point]	–	–	–	–	inconclusive: 18.7 µM [cytotoxic, partial curve, poor fit]	active: 18.7 µM
Oc1c(I)cc(I)c2cccnc12	inconclusive: 16.7 µM [cytotoxic, partial curve, poor fit]	inconclusive: 26.6 µM [cytotoxic, single point]	–	–	inconclusive: 27.6 µM [cytotoxic, single point]	inconclusive: 26.6 µM [cytotoxic, single point]	inconclusive: 18.8 µM [cytotoxic, single point]	inconclusive: 10.6 µM [cytotoxic, partial curve]
Nc1ccc2cc3ccc(N)cc3nc2c1	inconclusive: 26.4 µM [cytotoxic, single point]	active: 26.6 µM	inconclusive: 26.6 µM [cytotoxic, single point]	inconclusive: 26.6 µM [cytotoxic, single point]	–	inconclusive: 33.5 µM [cytotoxic, single point]	active: 4.73 µM	–
CCOc1ccc2nc3cc(N)ccc3c(N)c2c1	inconclusive: 33.3 µM [cytotoxic, single point]	inconclusive: 5.31 µM [cytotoxic, full curve]	–	inconclusive: 26.6 µM [cytotoxic, single point]	–	–	–	active: 26.6 µM
